# According to PubChem BioAssay (NCATS):
# Inconclusive results, whose numbers are uncertain, are shown with a selection of clear calls. A potency beside an inconclusive call is a rough fit, not a confirmed value. The source made the active and inactive calls. Calls come from the whole dose curve; as a rule, active = well fitted inhibition curve with a large enough effect; inconclusive = small, poorly fitted or top-dose-only effect; inactive = flat fitted curve, though single readings scatter.
# Biological target: Dual specificity protein kinase CLK4 (Homo sapiens) (UniProt Q9HAZ1)
# Experiment: qHTS Assay for Inhibitors of CDC-like Kinase 4 (ADP-FP Assay) (AID 1795); note: nearly all actives have a fitted effect of over 60% in size
# Conditions: Transcreener ADP fluorescence polarization; series mostly up to 50 µM; activity change, negative = inhibition: at the top concentration
# In short: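 Recombinant human Clk4 (6.25 nM) phosphorylated RS repeat peptide (100 uM) with 1 uM ATP in Tris pH 7.5/MgCl2/EGTA/DTT/Triton buffer for one hour. ADP was quantified by Transcreener competitive fluorescence polarization against an ADP calibration curve.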
# % is set by controls: 0 for no effect and ±100 for the full control effect; potency is the fitted concentration of half-maximal effect; tags give direction and shape of the fitted curve.
# Chain of UniProt Q9HAZ1 (Q9HAZ1 whole entry, looked up): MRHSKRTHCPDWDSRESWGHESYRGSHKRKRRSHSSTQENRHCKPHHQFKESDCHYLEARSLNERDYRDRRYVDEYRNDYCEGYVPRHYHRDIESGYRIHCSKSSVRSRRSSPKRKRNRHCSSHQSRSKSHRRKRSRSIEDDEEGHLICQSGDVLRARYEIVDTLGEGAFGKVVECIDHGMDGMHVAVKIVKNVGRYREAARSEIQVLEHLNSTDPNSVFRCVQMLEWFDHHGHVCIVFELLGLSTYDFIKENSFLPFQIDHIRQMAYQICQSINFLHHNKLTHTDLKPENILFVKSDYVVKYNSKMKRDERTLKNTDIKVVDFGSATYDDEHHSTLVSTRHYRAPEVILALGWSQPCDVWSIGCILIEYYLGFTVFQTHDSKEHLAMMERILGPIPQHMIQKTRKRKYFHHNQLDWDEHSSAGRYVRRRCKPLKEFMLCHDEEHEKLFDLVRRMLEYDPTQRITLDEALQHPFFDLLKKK
SMILES,Potency,"activity change, negative = inhibition"
Cc1cnc(CNc2cc(-c3cccc(NS(C)(=O)=O)c3)ncn2)cn1,"inconclusive: 12.6 µM [falling, partial curve]",
c1ccc(Nc2ncncc2-c2ccc3c(c2)OCO3)cc1,"inconclusive: 17.8 µM [falling, single point]",
COc1ccc2[nH]cc(CCNc3ccnc(-c4ccoc4)n3)c2c1,"inconclusive: 7.94 µM [falling, partial curve]",
COc1cccc(Nc2ncc3nc(C)c(=O)n(CCc4ccccc4)c3n2)c1,"inconclusive: 1 µM [falling, full curve, poor fit]",
Cn1cc(-c2nc3cnc(OCc4ccccc4)nc3n(CCC#N)c2=O)c2ccccc21,,inactive: 11.3%
c1ccc2c(NC3CC3)nc(-c3ccoc3)nc2c1,"inconclusive: 12.6 µM [falling, partial curve]",

# Biological target: Ubiquitin carboxyl-terminal hydrolase 1 (Homo sapiens) (UniProt O94782)
# Experiment: Inhibitors of USP1/UAF1: Pilot qHTS (AID 504865);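 note: rhodamine fluorescence freed from ubiquitin-rhodamine substrate followed over time; nearly all actives have a fitted effect of over 35% in size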; for activity change, negative = inhibition: top concentration of the series differs between compounds
# Conditions: purified USP1/UAF1, Ub-rhodamine cleavage fluorescence; series mostly up to 54.9 µM; activity change, negative = inhibition: at the top concentration
# In short: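 USP1/UAF1 complex (1nM) preincubated with compound 15 min at room temperature, then Ub-Rho substrate (150nM final) added. Fluorescence read kinetically at 480/540 nm, 6 reads every 60 seconds. Buffer: 50mM HEPES pH 7.8, 0.5mM EDTA, 0.1 mg/ml BSA, 1mM TCEP, 0.01% Tween-20.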
# Chain of UniProt O94782 (O94782 whole entry, looked up): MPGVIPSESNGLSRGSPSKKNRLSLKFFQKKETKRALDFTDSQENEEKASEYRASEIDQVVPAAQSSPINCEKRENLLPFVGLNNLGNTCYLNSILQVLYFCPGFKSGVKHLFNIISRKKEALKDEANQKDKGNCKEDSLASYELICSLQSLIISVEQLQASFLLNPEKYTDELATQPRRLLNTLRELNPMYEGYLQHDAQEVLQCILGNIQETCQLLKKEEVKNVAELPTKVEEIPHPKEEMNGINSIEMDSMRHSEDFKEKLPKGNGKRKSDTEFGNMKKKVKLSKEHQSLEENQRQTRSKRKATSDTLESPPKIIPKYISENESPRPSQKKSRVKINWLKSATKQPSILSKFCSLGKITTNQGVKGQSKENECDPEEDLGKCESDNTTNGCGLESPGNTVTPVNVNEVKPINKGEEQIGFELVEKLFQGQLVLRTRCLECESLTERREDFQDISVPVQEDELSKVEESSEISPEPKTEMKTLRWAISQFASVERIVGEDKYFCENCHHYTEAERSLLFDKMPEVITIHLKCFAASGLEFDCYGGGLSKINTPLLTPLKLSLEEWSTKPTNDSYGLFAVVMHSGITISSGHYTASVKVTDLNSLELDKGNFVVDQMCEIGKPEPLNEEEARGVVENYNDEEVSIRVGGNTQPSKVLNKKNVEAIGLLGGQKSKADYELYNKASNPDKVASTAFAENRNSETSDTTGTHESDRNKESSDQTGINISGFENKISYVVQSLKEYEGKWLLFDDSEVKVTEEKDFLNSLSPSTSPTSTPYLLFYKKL
SMILES,Potency,"activity change, negative = inhibition"
c1csc(CNc2nc(-c3ccoc3)nc3ccccc23)c1,"inconclusive: 31.6 µM [inhibitor, partial curve, poor fit]",
COc1ccccc1-c1nc(NCc2cccs2)c2ccccc2n1,active: 15.8 µM,
COc1ccccc1-c1cc(Nc2ccc(F)cc2)ncn1,"inconclusive: 35.5 µM [inhibitor, partial curve, poor fit]",
Cc1ccccc1-c1cc(NCc2ccccc2)ncn1,active: 20 µM,
COc1ccc(-c2nc3cnc(N4CCOCC4)nc3n(Cc3cccs3)c2=O)cc1,,inactive: -7.82%
COc1ccc2[nH]cc(CCNc3ccnc(-c4ccoc4)n3)c2c1,,inactive: -12.8%
Clc1ccccc1-c1nc(NCCN2CCOCC2)c2ccccc2n1,,inactive: -18.5%
COc1ccccc1CNc1ncncc1-c1cccnc1,"inconclusive: 20 µM [inhibitor, partial curve, poor fit]",
